# Assay results: paper PMC4336329 (PLoS ONE, 2015)
# Among all 310,000 compounds or so, about 2,200 (0.71%) showed an effect of 50% or more. The effect is printed as a negative number. The list shows a part of the results.
# Molecular target: human ether-à-go-go-related gene (hERG) potassium channel (human, UniProt Q12809)
# Experiment: primary screen, population patch clamp on CHO cells stably expressing hERG
# human ether-à-go-go-related gene (hERG) potassium channel, sequence (Q12809 whole entry, looked up): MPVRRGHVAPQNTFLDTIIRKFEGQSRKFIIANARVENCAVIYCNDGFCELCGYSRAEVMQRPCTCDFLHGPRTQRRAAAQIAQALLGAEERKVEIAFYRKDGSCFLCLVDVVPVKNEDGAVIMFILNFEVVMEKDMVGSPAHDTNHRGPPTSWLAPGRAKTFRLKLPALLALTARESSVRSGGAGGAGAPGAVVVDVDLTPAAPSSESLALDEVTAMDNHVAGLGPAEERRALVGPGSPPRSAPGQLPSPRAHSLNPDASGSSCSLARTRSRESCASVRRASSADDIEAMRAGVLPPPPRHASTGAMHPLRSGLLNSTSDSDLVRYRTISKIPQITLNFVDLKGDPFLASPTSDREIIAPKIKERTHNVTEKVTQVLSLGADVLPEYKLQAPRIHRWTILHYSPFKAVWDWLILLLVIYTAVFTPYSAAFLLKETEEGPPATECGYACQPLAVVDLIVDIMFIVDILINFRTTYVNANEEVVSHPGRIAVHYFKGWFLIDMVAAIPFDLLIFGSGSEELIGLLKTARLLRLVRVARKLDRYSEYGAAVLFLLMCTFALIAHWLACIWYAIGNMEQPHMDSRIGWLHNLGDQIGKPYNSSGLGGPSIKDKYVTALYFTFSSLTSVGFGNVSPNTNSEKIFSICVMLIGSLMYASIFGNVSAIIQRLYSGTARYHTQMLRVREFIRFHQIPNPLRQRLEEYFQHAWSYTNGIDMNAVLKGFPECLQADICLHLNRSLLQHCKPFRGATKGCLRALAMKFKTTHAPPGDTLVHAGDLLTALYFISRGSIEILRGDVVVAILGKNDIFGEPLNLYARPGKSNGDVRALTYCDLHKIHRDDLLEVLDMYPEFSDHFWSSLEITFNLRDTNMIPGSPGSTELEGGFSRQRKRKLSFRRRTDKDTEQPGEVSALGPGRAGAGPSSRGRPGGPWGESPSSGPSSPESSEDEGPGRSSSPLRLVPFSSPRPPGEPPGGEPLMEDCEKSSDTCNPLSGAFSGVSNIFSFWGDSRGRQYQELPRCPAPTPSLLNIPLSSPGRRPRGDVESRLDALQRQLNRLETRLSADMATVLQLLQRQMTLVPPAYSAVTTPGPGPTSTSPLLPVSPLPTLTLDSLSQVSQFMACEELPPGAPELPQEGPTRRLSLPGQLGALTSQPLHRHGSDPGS
row,SMILES,"hERG current change (%, negative = inhibition) at 1uM"
1,CCOC(=O)C1CCCN(C(=O)c2cnn3c(C(F)F)cc(-c4ccc(C)cc4)nc23)C1 (centres unmarked),-3.14%
2,CN1CCN(c2ccccc2NC(=O)c2cccs2)CC1,-8.79%
3,COC(=O)NNC(=O)C(c1ccccc1)c1ccccc1,10.1%
4,CCOC(=O)C1CCN(S(=O)(=O)c2c(C)[nH]c(C)c2C(=O)N2CCCC2)CC1,12.1%
5,O=C(Cn1cnc2c(nnn2Cc2ccc(Cl)cc2)c1=O)N1CCN(c2ccccc2)CC1,3.91%
6,NS(=O)(=O)c1ccc(CCN2C(=O)CCC2=O)cc1,10.5%
7,Cc1ccc(N(CC(=O)N2CCOCC2)S(C)(=O)=O)cc1C,-1.99%
8,COc1ccc(NS(=O)(=O)c2cccc(C(=O)N/N=C/c3ccc4c(c3)OCCO4)c2)cc1,9.64%
9,Cc1c(NC(=O)c2ccc(Cl)s2)c(=O)n(-c2ccccc2)n1C,8.57%
10,Cc1cc(/C=C(/C#N)c2cccc(Cl)c2)c(C)n1C,10.4%
11,O=C(CN1CCN(S(=O)(=O)c2ccc(F)cc2)CC1)Nc1cc(C(F)(F)F)ccc1Cl,8.76%
12,CN(C)CCN(C(=O)c1ccc(S(=O)(=O)N(C)CC2CCCO2)cc1)c1nc2cc3c(cc2s1)OCO3.Cl (centres unmarked),0.275%
13,CCN1CCN(C(=O)CN2C(=O)COc3ccc(S(=O)(=O)N4CCOCC4)cc32)CC1,13.5%
14,O=C(N/N=C/c1cccc(Oc2ccccc2)c1)c1cccc(Br)c1,11.3%
15,COc1cc(C(C)=O)ccc1Oc1cnccn1,18.6%
16,Cc1ccccc1C(=O)Nc1ccnn1C1CCN(CCCc2ccccc2)CC1,-84.5%
17,CNC(=O)[C@H](C)[C@@H]1C[C@@]1(C)[C@@H](NC(=O)OCc1ccccc1)c1ccccc1,13.5%
18,CCN1C(=O)[C@H]2[C@@H](c3ccc(-c4ccc5c(c4)OCO5)cc3)N3CCC[C@@]3(C(=O)OC)[C@H]2C1=O.O=C(O)C(F)(F)F,7.54%
19,COc1ccc(Cn2c(CCC(=O)O)nc3cccnc32)cc1,24.8%
20,COc1cc2cc(Oc3ccc4ccc(=O)oc4c3)c(=O)oc2cc1OC(=O)/C=C/c1ccccc1,-5.05%
21,CCn1cc(C(=O)NCc2cccnc2)c2cc(OC)c(OC)cc2c1=O,6.13%
22,CNS(=O)(=O)c1cccc(C(=O)OCC(=O)c2ccc(S(=O)(=O)N3CCCCC3)cc2)c1,12.8%

row,SMILES,"hERG current change (%, negative = inhibition) at 1uM"
1,O=C(Nn1c(-c2ccc(F)cc2)nc2ccccc2c1=O)c1cccnc1,12.1%
2,COC(=O)C1=C(c2ccc(F)cc2OCc2ccccc2)C[C@@H]2CC[C@H]1N2C(=O)NCc1ccc2c(c1)OCO2,5.53%
3,Cc1cc(Cl)ccc1NC(=O)CN1C(=O)NC2(CCCC2)C1=O,4.42%
4,CCCCOc1ccc(C2CCC(C(C)=O)C(C)C2)cc1 (centres unmarked),2.33%
5,Cc1ccsc1C(=O)C1CCCN(Cc2cn(C)nc2C)C1 (centres unmarked),-9.22%
6,COc1ccc(NS(=O)(=O)c2cccc(C(=O)NNC(=O)COc3ccccc3)c2)cc1,6.25%
7,O=C1CCCN1CC(O)CS(=O)(=O)Cc1ccc(Cl)c(Cl)c1 (centres unmarked),3.4%
8,CCOc1cc(C2C(C#N)=C(N)Oc3n[nH]c(-c4ccncc4)c32)cc([N+](=O)[O-])c1O (centres unmarked),24.5%
9,O=C(Nc1cccc(F)c1)c1cccc2c1C(=O)N(C1CCCCC1)C2,14%
10,CCOc1ccc(-c2c(=O)n(OCc3ccccn3)c3ccccc3[n+]2[O-])cc1,12.6%
11,O=C(Nc1nccs1)c1ccc(Br)o1,2.31%
12,CCOC(CNC(=O)C(=O)Nc1cc2c3c(c1)CCN3C(=O)CC2)OCC,-14.9%
13,CCC(Sc1nc(-c2ccccc2)c(C#N)c(=O)[nH]1)C(=O)Nc1nnc(C)s1 (centres unmarked),4.53%
14,Cl.Fc1cccc(C2NCc3ccccc3-n3cccc32)c1 (centres unmarked),7.86%
15,COc1ccc2cc(C(c3nnnn3C(C)(C)C)N3CCc4ccccc4C3)c(=O)[nH]c2c1 (centres unmarked),6.1%
16,S=c1[nH]nc(COc2ccc(Cl)cc2)o1,22.9%
17,Cc1ccc(NC(=O)c2ccc3nc[nH]c3c2)nc1,10.6%
18,CC(Cc1ccccc1)N1Cc2ccccc2C1 (centres unmarked),9.38%
19,CCOP(=O)(OCC)/C(C#N)=C/c1ccc(Br)cc1,9.34%
20,CN(c1ccccc1)S(=O)(=O)c1cccc(NC(=O)Cc2ccc(Cl)cc2)c1,16.4%
21,CC(C)Cn1c(CN2CCN(C(=O)c3ccco3)CC2)nc2c1c(=O)n(C)c(=O)n2C,6.08%
22,Clc1ccc(-c2nnc3sc(-c4ccc(Br)o4)nn23)cc1,9.66%

row,SMILES,"hERG current change (%, negative = inhibition) at 1uM"
1,CC(=Nc1ccccc1N)c1c(O)n(C)c(=O)n(C)c1=O,13.3%
2,O=c1c2c(-c3ccc([N+](=O)[O-])cc3)ccnc2[nH]n1-c1ccccc1,1.24%
3,O=C(/C=C/c1ccccc1)N1CCC[C@H]1CO,13%
4,Cc1ccc(C(=O)c2coc3cc([N+](=O)[O-])c(O)c([N+](=O)[O-])c23)cc1,7.26%
5,CCOC(=O)C1=C(C)N(c2ccccc2)C(=O)C1CC(=O)O (centres unmarked),7.4%
6,CCN(CC)c1nc2nonc2nc1N(CC)CC,9.54%
7,O=C(N/N=C\c1ccc(O)c([N+](=O)[O-])c1)c1ccccc1-n1cccc1,10.4%
8,CN(CC(=O)Nc1cccc(S(=O)(=O)N2CCOCC2)c1)CC(=O)Nc1ccc(Cl)c(C(F)(F)F)c1,8.96%
9,CC(=O)Nc1ccc(NC(=O)CSCCc2ccccn2)cc1,10.3%
10,C=CCNc1nc(-c2ccccn2)nnc1-c1ccccc1,8.39%
11,COc1ccc(N(CC(=O)N2CCc3ccccc32)S(=O)(=O)c2c(C)n[nH]c2C)cc1,-0.973%
12,COc1ccc(-c2cc(C(=O)O)c(C)o2)cc1OC,0.404%
13,COc1cc2nc(NC(=O)c3ccc(Cl)cc3)sc(=O)c2cc1OC,11.4%
14,COc1ccc(CNC(=O)[C@@H]2CC=C[C@@H]3CCN(C4CC4)C(=O)[C@@H]32)cc1,8.64%
15,N=c1c(C(=O)NCc2ccc3c(c2)OCO3)cc2c(=O)n3ccccc3nc2n1Cc1cccnc1,-51.5%
16,O=C(O)c1cccc(Cl)n1,6.87%
17,CN(CC(=O)Nc1cccc(F)c1)C(=O)c1cc2c(s1)CCCCC2,17.3%
18,O=C(CN1C(=O)CCC1=O)Nc1cccc2c1C(=O)NC2=O,6.17%
19,Cc1cc(C)n(-c2ccc(NC(=O)C3CCCCN3C(=O)c3occc3C)cc2)n1 (centres unmarked),3.61%
20,COc1ccc(-c2csc(Nc3cccnc3)n2)cc1,22.4%
21,O=C(O)C1CCN(C(=O)c2ccc3c(c2)OCO3)CC1,5.91%
22,Cc1c(N(C)C(=O)C2CCCN2S(=O)(=O)c2ccccc2)c(=O)n(-c2ccccc2)n1C (centres unmarked),16.2%

row,SMILES,"hERG current change (%, negative = inhibition) at 1uM"
1,CCC(C)C1C(C#N)=C(N)Oc2n[nH]c(C)c21 (centres unmarked),14.1%
2,COC(=O)c1c(NC(=O)c2c(OC)cccc2OC)sc2c1C(C(=O)OC)CC2 (centres unmarked),8.6%
3,COc1ccc(-c2csc(NC(=S)NC(=O)c3cccs3)n2)cc1Br,11.5%
4,Cc1noc(C)c1CSc1ccccc1C(=O)OC(C)C(N)=O (centres unmarked),22.5%
5,CC(=O)c1cc(CN2CCCCC2)cc(OC(C)C)c1.Cl,9.09%
6,O=C1COc2ccc(C(=O)COC(=O)Cc3ccsc3)cc2N1,-11%
7,CSCCC(NS(=O)(=O)c1cccs1)C(=O)NCc1cccs1 (centres unmarked),-1.88%
8,CCn1ccnc1CN(C)Cc1c(C(=O)N2CCCCCCC2)nc2ccc(Cl)cn12,-15.2%
9,Cc1cccn2c(CNCC(C)Oc3cccnc3)c(C(=O)N3CCOCC3)nc12 (centres unmarked),9.46%
10,COc1cccc(OCc2cc(C(=O)N3CCCC3c3ccccn3)no2)c1 (centres unmarked),11.1%
11,O=C(Cn1nc(C(=O)O)c2ccccc2c1=O)NCC1CCCO1 (centres unmarked),14.8%
12,CC(C)COc1ccc(C(=O)CCN2CCCCC2)cc1.Cl,-22.9%
13,COc1ccc(C(=O)NCc2nnc(SCC(=O)N3CCCc4ccccc43)o2)cc1OC,11.3%
14,O=C(CSc1nc(-c2ccccc2)cc(=O)[nH]1)N1CCOCC1,11.5%
15,O=C1CC(N(O)c2ccccc2)C(=O)N1c1ccc(Cl)c(Cl)c1 (centres unmarked),10.5%
16,O=C(CNC(=O)c1ccccc1)NCCc1nc2ccccc2[nH]1,5.84%
17,O=C(O)c1ccccc1N=Nc1ccc(O)cc1,5.93%
18,O=C(CCSCCc1ccccn1)Nc1cccc([N+](=O)[O-])c1,0.209%
19,O=S(=O)(c1ccc(F)cc1)N1CCn2c(nc3ccccc32)C1,18.9%
20,Cc1nc(Oc2ccccc2)c2ccsc2n1,2.99%
